Measurements reported in the supplement of paper PMC12217912.
The list shows a part of the results. The full chains were built here from the parent and the listed change. Values near 0.05 are background.

B1: TEV protease; numbered along this chain (parent)
chain: MGESLFKGPRDYNPISSSICHLTNESDGHTTSLYGIGFGPFIITNKHLFRRNNGTLVVQSLHGVFKVKDTTTLQQHLVDGRDMIIIRMPKDFPPFPQKLKFREPQREERICLVTTNFQTKSMSSMVSDTSCTFPSGDGIFWKHWIQTKDGQCGSPLVSTRDGFIVGIHSASNFTNTNNYFTSVPKNFMELLTNQEAQQWVSGWRLNADSVLWGGHKVFMVKPEEPFQPVKEATQL

Variants of: B1
Experiment: raw area under fraction-flipped curve 0-4 h after induction (AUC4h, not background-subtracted), DNA-recorder readout of cleavage of the substrate (dimensionless); higher = more cleavage of the substrate by the protease variant
Details: temperature: 34 °C; time window: 0-4 h after rhamnose induction
Experimental: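 In vivo DNA recorder in E. coli TOP10(DE3) ΔrhaA at 34 °C. Each TEVp single-site mutant (parent TEVp 0) is paired with a single-site variant of the 7-mer TEVs (canonical ENLYFQ|S). The substrate sits between flexible linkers in a Bxb1-sfGFP-TEVs-SsrA fusion, so cleavage stabilises Bxb1 and speeds flipping of a recombination array, read by NGS. The value is the raw area under the fraction-flipped curve over 0-4 h after rhamnose induction (AUC4h), with ≥20 reads per time point. It is not background-subtracted; inactive controls average about 0.047.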
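Also: Bxb1 expression induced with 0.2% (w/v) L-rhamnose at OD600 near 0.5, cultures sampled hourly, flipped fraction per protease–substrate barcode pair counted by paired-end Illumina sequencing.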

Row | Variant | area with substrate ENAYFQS | area with substrate ENCYFQS | area with substrate ENDYFQS | area with substrate ENEYFQS | area with substrate ENFYFQS | area with substrate ENKYFQS | area with substrate ENNYFQS | area with substrate ENPYFQS | area with substrate ENQYFQS | area with substrate ENRYFQS | area with substrate ENSYFQS | area with substrate ENTYFQS | area with substrate ENVYFQS | area with substrate ENGYFQS | area with substrate ENMYFQS | area with substrate ENHYFQS | area with substrate ENIYFQS | area with substrate ENYYFQS | area with substrate ENWYFQS
1 | A207N | 0.0699 | 0.082 | 0.0637 | 0.0473 | 0.0624 | 0.0697 | 0.0594 | 0.053 | 0.0575 | 0.0605 | 0.0597 | 0.0502 | 0.0659 | – | – | – | – | – | –
2 | E195M | 0.0393 | – | 0.0739 | 0.0587 | 0.0663 | – | 0.07 | 0.0524 | 0.0633 | 0.0665 | 0.0729 | 0.0708 | 0.0573 | 0.0596 | 0.0678 | – | – | – | –
3 | V210C | 0.056 | 0.0656 | 0.0625 | 0.0655 | 0.0648 | 0.0596 | 0.06 | – | 0.0623 | 0.0573 | 0.0617 | 0.0643 | 0.0618 | 0.0464 | 0.0644 | 0.0533 | 0.099 | 0.0579 | –
4 | V210Q | 0.0621 | 0.0546 | 0.0718 | 0.0578 | 0.0588 | 0.07 | 0.0612 | – | 0.0593 | 0.0428 | 0.0675 | 0.0605 | 0.0647 | 0.0682 | – | 0.0603 | 0.0835 | – | 0.0751
5 | G213L | 0.0663 | – | 0.056 | – | 0.0517 | – | – | – | 0.0555 | 0.0575 | 0.0599 | – | 0.0677 | – | – | 0.0665 | – | – | –
6 | W212Q | 0.0589 | – | 0.0676 | 0.0653 | 0.0698 | 0.0591 | – | 0.0765 | 0.0603 | 0.0588 | – | 0.0546 | 0.0614 | 0.0787 | 0.0644 | 0.0543 | 0.0941 | – | 0.0448
7 | Q194T | 0.0536 | 0.0539 | 0.0552 | 0.059 | 0.065 | – | 0.0541 | 0.0592 | 0.059 | – | 0.0937 | – | 0.0903 | 0.0666 | 0.0756 | 0.0687 | – | 0.0576 | 0.0598
8 | G202Y | 0.051 | – | 0.0604 | 0.066 | – | 0.0555 | – | – | 0.0664 | – | – | 0.0491 | – | 0.0385 | – | – | – | 0.0495 | 0.0358
9 | G202H | 0.0534 | 0.0606 | – | 0.0532 | 0.0582 | – | 0.0709 | 0.061 | 0.0683 | 0.0609 | 0.0569 | 0.0592 | – | – | – | – | – | 0.0511 | –
10 | V217D | 0.0636 | 0.0524 | 0.0602 | – | 0.055 | 0.0549 | 0.0502 | 0.0495 | 0.0586 | 0.0559 | 0.0638 | 0.0623 | 0.0463 | – | – | – | – | – | –
11 | M188E | 0.0605 | 0.0616 | 0.0591 | 0.0427 | – | – | – | – | – | – | 0.08 | 0.0675 | – | 0.0657 | – | – | 0.127 | – | –
12 | M188W | 0.0669 | 0.0615 | 0.0862 | – | – | 0.054 | 0.0594 | – | 0.0454 | – | 0.0657 | 0.0611 | 0.0856 | 0.0713 | 0.0794 | – | 0.123 | 0.0826 | 0.0488
13 | E223M | 0.048 | 0.0852 | – | 0.0641 | 0.0607 | 0.062 | 0.0583 | 0.0618 | 0.0584 | 0.0517 | 0.0524 | 0.0715 | 0.0706 | – | – | – | 0.0913 | – | –
14 | E223H | 0.0459 | 0.0764 | 0.0581 | 0.0576 | 0.0582 | – | 0.0721 | – | 0.0571 | 0.0541 | 0.0803 | 0.0569 | – | 0.0585 | 0.0601 | – | 0.0828 | 0.0604 | 0.0883
